Test results published in the supplement of paper PMC7125110.
± gives the standard error. Variants at the background level are over-represented here.

B1: glmS ribozyme (parent)
chain: AUAAAAGCGCCAGAACUACAGAAAUGUAGUUGACGAGGAGGAGGUUUAUCGAAUUUUCGGCGGAUGCCUCCAAA

What was measured:
Settings in all cases: with glucosamine-6-phosphate
[1] = variants of: B1; test: self-cleavage kobs at 40 uM GlcN6P; higher = faster cleavage; RNA array
In short: (§1)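 Glucosamine-6-phosphate in HEPES/KCl/Mg(OAc)2 buffer, at 40 μM to 10 mM, was flowed over barcoded ribozyme variants transcribed in situ by E. coli RNA polymerase on sequenced MiSeq chips. Tracking was through a hybridised Cy3 probe at 37 °C. kobs, kcat and KM came from exponential decay fits and weighted Michaelis–Menten fits of normalised per-tile medians.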

[2] = variants of: B1; test: self-cleavage kobs at 640 uM GlcN6P; higher = faster cleavage; RNA array
In short: as §1

[3] = variants of: B1; test: self-cleavage kobs at 160 uM GlcN6P; higher = faster cleavage; RNA array
In short: as §1

[4] = variants of: B1; test: self-cleavage kobs at 2500 uM GlcN6P; higher = faster cleavage; RNA array
In short: as §1

[5] = variants of: B1; test: self-cleavage kobs at 10000 uM GlcN6P; higher = faster cleavage; RNA array
In short: as §1

Row | Variant | self-cleavage kobs at 40 uM GlcN6P [1] [s⁻¹] | self-cleavage kobs at 640 uM GlcN6P [2] [s⁻¹] | self-cleavage kobs at 160 uM GlcN6P [3] [s⁻¹] | self-cleavage kobs at 2500 uM GlcN6P [4] [s⁻¹] | self-cleavage kobs at 10000 uM GlcN6P [5] [s⁻¹]
1 | C8U G44U | < 1e-05 | < 1e-05 | < 1e-05 | < 1e-05 | < 1e-05
2 | C8U G62U U69G | 0.00021 ± 7.2e-05 |  |  |  | 0.000358 ± 0.00015
3 | C8U G66A | < 1e-05 | < 1e-05 | < 1e-05 |  | 
4 | C8U U54G | < 1e-05 | < 1e-05 |  | < 1e-05 | < 1e-05
5 | C8U U55G | < 1e-05 | < 1e-05 |  | < 1e-05 | 
6 | C8U U65C | < 1e-05 | < 1e-05 |  | < 1e-05 | 
7 | G9A A14C A48C | < 1e-05 |  |  |  | 
8 | G9A A14C C34A G60A | < 1e-05 |  |  |  | < 1e-05
9 | G9A A15U | < 1e-05 | < 1e-05 | < 1e-05 | < 1e-05 | 
10 | G9A A33G | < 1e-05 |  | < 1e-05 | < 1e-05 | 
11 | G9A A42C A53C | < 1e-05 |  |  |  | < 1e-05
12 | G9A A53G G59C | < 1e-05 | < 1e-05 | < 1e-05 | < 1e-05 | < 1e-05
13 | G9A A64G | < 1e-05 | < 1e-05 |  | < 1e-05 | 
14 | G9A C10A C61A | < 1e-05 |  |  |  | 
15 | G9A C10U G38U U45A | < 1e-05 |  |  |  | 
16 | G9A C11U C34U | < 1e-05 |  |  |  | 
17 | G9A C58U G60U | < 1e-05 |  |  |  | 
18 | G9A C68A | < 1e-05 | < 1e-05 | < 1e-05 | < 1e-05 | < 1e-05
19 | G9A G13A A14C C61A | < 1e-05 |  |  |  | < 1e-05
20 | G9A G29A | < 1e-05 |  | < 1e-05 | < 1e-05 | < 1e-05
21 | G9A G32C A52U | < 1e-05 |  |  |  | 
22 | G9A G32U | < 1e-05 | < 1e-05 | < 1e-05 | < 1e-05 | < 1e-05
